The assay relates to Dengue virus (DV) type 2, New Guinea strain. In words: CPE assay against dengue virus.

SMILES strings stand for the structures. Converted amounts (≈) assume the structure as drawn. Bounds are passed on as bounds.

The EC50 is the concentration needed to bring the measured effect to its halfway point. Lower therefore signals higher potency in that assay. Regarding `NC(=O)c1ncn([C@@H]2O[C@H](CO)[C@@H](O)[C@H]2O)n1` [Ribavirin, reference compound], the EC50 was over 80 µg/mL (DV, CPE assay, MA-104 cells) and over 80 µg/mL (Dengue virus, MA104). Molecule `Nc1nc(=O)n2ccn([C@@H]3O[C@H](CO)[C@@H](O)[C@H]3O)c2n1` [ZX-2401, 2-amino-8-(β-D-ribofuranosyl) imidazo [1,2-a]-s-triazine-4-one] came in with an EC50 (Dengue virus, MA104) of 10 µg/mL (≈ 35.3 µM).

The values above are taken from patent US20060035848A1, “Broad-spectrum inhibitor of viruses in the Flaviviridae family” (ZymeTx, Inc., priority 2004, published 2006).
